Laboratory results: patent US20240190987A1, “Engineered EpCam Binding Antibodies” (TigaTX, priority 2021, published 2024)
One block for each molecule: values may come before it.

Tests used:
[1] = BLI binding of LS2A variants to biotin-IDV; conditions: LS2A R4 variants (Table 21)
Protocol: In R1 of engineering, point mutations were made to remove an oxidation site, deamidation sites, or a hydrophobic residue. In addition, several murine back mutations were tested to improve humanization. Binding kinetics were measured to biotin-IDV and LS2B Ab0637.
Bio-layer interferometry (BLI) data were measured using an Octet RED384 (ForteBio) instrument. Antigens of interest were immobilized on an AHC biosensor and loaded until a 0.4-0.6-nm signal was achieved. Purified antibodies were used as the analyte premixed with 10 μM Indinavir or 0.05% DMSO vehicle. PBSTB (PBS, pH 7.4, 0.05% Tween-20, 0.2% BSA) was used for all buffers for BLI. Data were analyzed using ForteBio Octet analysis software and kinetic parameters were determined using a 1:1 monovalent binding model.

[2] = Differential scanning fluorimetry (DSF) melting temperature; assay type: physicochemical
Protocol: DSF was performed on a LC480 Lightcycler Instrument II (Roche). Purified recombinant protein was diluted to 5 μM in DSF buffer (PBS, pH 7.4, Sypro Orange 5×) with small molecule (10 μM VTX) or vehicle (0.05% DMSO) and then heated with a temperature gradient (0.01° C./s) from 25 to 95° C. Data were continuously acquired at ˜465 nm (excitation) and ˜580 nm (emission). Data was analyzed to generate first derivative curves in which the curve maximum was reported as the melting temperature of the protein.

Kd [1]: 22 nM
B1: Ab1124: LS2A indinavir binding domain, FIGS. 5A-5E (antibody)
heavy: EVQLVESGGGLVQPGGSLRLSCAASGFTFSNYWMNWVRQAPGKGLEWVAQIRVKSENFATHYADSVKGRFTISRDDSKSTVYLQMNSLRAEDTAVYYCTLYDGFSWGQGTLVTVSSASTKGPSVFPLAPSSKSTSGGTAALGCLVKDYFPEPVTVSWNSGALTSGVHTFPAVLQSSGLYSLSSVVTVPSSSLGTQTYICNVNHKPSNTKVDKKV[human IgG1 Fc with changes left out]
scFv: QVQLVQSGAEVKKPGASVKVSCKASGYTFTSYWMHWVRQHPGQGLEWMGMIHPNSGGTNYAQKFQGRVTMTRDTSTSTVYMELSSLRSEDTAVYYCAMGDYVSRDYWGQGTLVTVSSGGGGSGGGGSGGGGSEIVLTQSPGTLSLSPGERATLSCRASSSVSSSYLHWYQQKPGQAPRLLIYSTSSRATGIPDRFSGSGSGTDFTLTISRLEPEDFAVYYCQQASGYQFTFGQGTKLEIKGGGGS[human IgG1 Fc with changes left out]
modifications: light chain entry not cited; REGION 1..445: note = Ab1124 HC Knob; REGION 1..471: note = Ab1124 HC Hole scFv-Fc

Kd [1]: 6.3 nM
B2: Ab1109: LS2A indinavir binding domain, FIGS. 5A-5E (antibody)
heavy: EVQLVESGGGLVQPGGSLRLSCAASGFTFSNYWMNWVRQAPGKGLEWVAQIRVKSENFATHYADSVKGRFTISRDDSKSTVYLQMNSLRAEDTAVYYCTLYDGFSWGQGTLVTVSSASTKGPSVFPLAPSSKSTSGGTAALGCLVKDYFPEPVTVSWNSGALTSGVHTFPAVLQSSGLYSLSSVVTVPSSSLGTQTYICNVNHKPSNTKVDKKV[human IgG1 Fc with changes left out]
scFv: QVQLVQSGAEVKKPGASVKVSCKASGYTFTSYWMHWVRQHPGQGLEWMGMIHPNSGSTNYAQKFQGRVTMTRDTSTSTVYMELSSLRSEDTAVYYCAMGDYVSRDYWGQGTLVTVSSGGGGSGGGGSGGGGSEIVLTQSPGTLSLSPGERATLSCRASSSVSSSYLHWYQQKPGQAPRLLIYSTSSRATGIPDRFSGSGSGTDFTLTISRLEPEDFAVYYCQQYSGYQFTFGQGTKLEIKGGGGS[human IgG1 Fc with changes left out]
modifications: light chain entry not cited; REGION 1..445: note = Ab1109 HC Knob; REGION 1..471: note = Ab1109 HC Hole scFv-Fc

biotin-IDV KD (nM) [1]: weak
B6: Ab1107: LS2A indinavir binding domain, FIGS. 5A-5E (antibody)
heavy: EVQLVESGGGLVQPGGSLRLSCAASGFTFSNYWMNWVRQAPGKGLEWVAQIRVKSENFATHYADSVKGRFTISRDDSKSTVYLQMNSLRAEDTAVYYCTLYDGFSWGQGTLVTVSSASTKGPSVFPLAPSSKSTSGGTAALGCLVKDYFPEPVTVSWNSGALTSGVHTFPAVLQSSGLYSLSSVVTVPSSSLGTQTYICNVNHKPSNTKVDKKV[human IgG1 Fc with changes left out]
scFv: QVQLVQSGAEVKKPGASVKVSCKASGYTFTSYWMHWVRQHPGQGLEWMGMAHPNSGGTNYAQKFQGRVTMTRDTSTSTVYMELSSLRSEDTAVYYCAMGDYVSRDYWGQGTLVTVSSGGGGSGGGGSGGGGSEIVLTQSPGTLSLSPGERATLSCRASSSVSSSYLHWYQQKPGQAPRLLIYSTSSRATGIPDRFSGSGSGTDFTLTISRLEPEDFAVYYCQQYSGYQFTFGQGTKLEIKGGGGS[human IgG1 Fc with changes left out]
modifications: light chain entry not cited; REGION 1..445: note = Ab1107 HC Knob; REGION 1..471: note = Ab1107 HC Hole scFv-Fc

Continued, molecule first:

B3: Ab1088: anti-EpCAM T-LITE (CT) antibody, FIGS. 8A-8C, 9C (protein)
light: DIQMTQSPSSLSASVGDRVTITCSASSSVSSGNFHWYQQKPGKAPKLLIYRTSNLASGVPSRFSGSGSGTDYTLTISSLQPEDFATYYCQQWSGYPYTFGQGTKVEIKRTVAAPSVFIFPPSDEQLKSGTASVVCLLNNFYPREAKVQWKVDNALQSGNSQESVTEQDSKDSTYSLSSTLTLSKADYEKHKVYACEVTHQGLSSPVTKSFNRGEC
heavy: EVQLVESGGGLVQPGGSLRLSCAASGFTFSNYWMNWVRQAPGKGLEWVAQIRVKSENFATHYADSVKGRFTISRDDSKSTVYLQMNSLRAEDTAVYYCTLYDAFSWGQGTLVTVSSASTKGPSVFPLAPSSKSTSGGTAALGCLVKDYFPEPVTVSWNSGALTSGVHTFPAVLQSSGLYSLSSVVTVPSSSLGTQTYICNVNHKPSNTKVDKKV[human IgG1 Fc with changes left out]
modifications: knob heavy chain missing; REGION 1..215: note = Ab1088 Hole LC; REGION 1..445: note = Ab1088 Hole HC
TM (° C.) ([2]; thermostability by DSF, Table 27): 70.1 °C

B4: Ab1103: LS2A indinavir binding domain, FIGS. 5A-5E (antibody)
heavy: EVQLVESGGGLVQPGGSLRLSCAASGFTFSNYWMNWVRQAPGKGLEWVAQIRVKSENFATHYADSVKGRFTISRDDSKSTVYLQMNSLRAEDTAVYYCTLYDGFSWGQGTLVTVSSASTKGPSVFPLAPSSKSTSGGTAALGCLVKDYFPEPVTVSWNSGALTSGVHTFPAVLQSSGLYSLSSVVTVPSSSLGTQTYICNVNHKPSNTKVDKKV[human IgG1 Fc with changes left out]
scFv: QVQLVQSGAEVKKPGASVKVSCKASGYTFTSYWMHWVRQHPGQGLEWMGMIHPASGGTNYAQKFQGRVTMTRDTSTSTVYMELSSLRSEDTAVYYCAMGDYVSRDYWGQGTLVTVSSGGGGSGGGGSGGGGSEIVLTQSPGTLSLSPGERATLSCRASSSVSSSYLHWYQQKPGQAPRLLIYSTSSRATGIPDRFSGSGSGTDFTLTISRLEPEDFAVYYCQQYSGYQFTFGQGTKLEIKGGGGS[human IgG1 Fc with changes left out]
modifications: light chain entry not cited; REGION 1..445: note = Ab1103 HC Knob; REGION 1..471: note = Ab1103 HC Hole scFv-Fc
Kd [1]: 11 nM

B5: Ab1105: LS2A indinavir binding domain, FIGS. 5A-5E (antibody)
heavy: EVQLVESGGGLVQPGGSLRLSCAASGFTFSNYWMNWVRQAPGKGLEWVAQIRVKSENFATHYADSVKGRFTISRDDSKSTVYLQMNSLRAEDTAVYYCTLYDGFSWGQGTLVTVSSASTKGPSVFPLAPSSKSTSGGTAALGCLVKDYFPEPVTVSWNSGALTSGVHTFPAVLQSSGLYSLSSVVTVPSSSLGTQTYICNVNHKPSNTKVDKKV[human IgG1 Fc with changes left out]
scFv: QVQLVQSGAEVKKPGASVKVSCKASGYTFTSYWMHWVRQHPGQGLEWMGMIHPQSGGTNYAQKFQGRVTMTRDTSTSTVYMELSSLRSEDTAVYYCAMGDYVSRDYWGQGTLVTVSSGGGGSGGGGSGGGGSEIVLTQSPGTLSLSPGERATLSCRASSSVSSSYLHWYQQKPGQAPRLLIYSTSSRATGIPDRFSGSGSGTDFTLTISRLEPEDFAVYYCQQYSGYQFTFGQGTKLEIKGGGGS[human IgG1 Fc with changes left out]
modifications: light chain entry not cited; REGION 1..445: note = Ab1105 HC Knob; REGION 1..471: note = Ab1105 HC Hole scFv-Fc
TM (° C.) ([2]; LS2A R4 variants (Table 21)): 59.6 °C
Kd [1]: 11 nM
